Experimental data as given in PubChem BioAssay AID504832 (National Center for Advancing Translational Sciences (NCATS), 2011).
In all, about 310,000 compounds went through this assay and about 18,000 (5.8%) were called active. The inconclusive results got no clear call from the source; some entries with a clear call stand among them for comparison. The call rests on the fitted dose curve; in most records, active means well fitted inhibition curve with a large enough effect; inconclusive means small, poorly fitted or top-dose-only effect, or another doubt; inactive means no such curve, though single readings can be large or run the other way. No potency is given beside an inconclusive call; the fits are too rough.
On the % scale 0 is the no-effect control and ±100 the full control effect; potency means the concentration at half of the fitted maximal effect; tags describe the fitted curve by direction and shape.

Assay: Primary qHTS for delayed death inhibitors of the malarial parasite plastid, 48 hour incubation
Details: P. falciparum luciferase growth in erythrocytes; series mostly up to 28.7 µM; activity change, negative = inhibition: at the top concentration
Method in brief: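 Cell-based growth assay: transgenic P. falciparum expressing firefly luciferase, cultured in red cells within RPMI 1640 containing 0.5% w/v Albumax, 24 mM bicarbonate and gentamycin. A drop in luciferase activity indicates inhibition.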
With CCCS(=O)(=O)c1nc(S(=O)(=O)c2ccc(C)cc2)c(N2CCC3(CC2)OCCO3)s1 the “activity change, negative = inhibition” value was inactive: -16.4%.
For Cc1cccc(OCCn2c(=O)oc3ccc(C)cc32)c1, the Potency was inconclusive [inhibitor, single point].
With COc1cc2ccccc2cc1C(=O)N(CCN(C)C)c1nc2c(C)cccc2s1 the Potency was inconclusive [inhibitor, partial curve].
For Cc1ccc(-c2noc(CN(C(=O)C34CC5CC(CC(C5)C3)C4)C(C)C)n2)cc1, the Potency was inconclusive [inhibitor, single point].
In the case of Cc1ccc(S(=O)(=O)N(C)c2ccccc2C(=O)Nc2ccc(F)cc2F)cc1, the Potency is reported as inconclusive [inhibitor, partial curve, poor fit].
With CC(C)OCC(O)CN1CCNCC1 (configuration not stated) the “activity change, negative = inhibition” value was inactive: 34.7%.
With CS(=O)(=O)c1cccc(C(=O)Nc2ccc(S(=O)(=O)N3CCCCC3)cc2)c1 the Potency was inconclusive [inhibitor, single point].
With CCC(C)(C)C1CCc2c(sc(N)c2C(N)=O)C1 (configuration not stated) the “activity change, negative = inhibition” value was inactive: -4.77%.
In the case of COC(=O)c1cc(S(=O)(=O)N2CCN(c3ccccc3F)CC2)c[nH]1, the Potency is reported as inconclusive [inhibitor, single point].
For CCCO/N=C1/C(=O)N(c2ccccc2)c2ccccc21, the Potency was inconclusive [inhibitor, single point].
For CCOC(=O)C(=CNc1cccc(N)n1)C(=O)OCC, the Potency was inconclusive [inhibitor, partial curve].
With Cc1csc(CNC(=O)c2ccc(OC3CCN(CCc4ccccc4)CC3)cc2)n1 the Potency was inconclusive [inhibitor, partial curve, poor fit].
In the case of Cc1ccc(S(=O)(=O)NCC(=O)N(CC(=O)NCc2ccco2)Cc2ccc(F)cc2)cc1, the Potency is reported as inconclusive [inhibitor, partial curve, poor fit].
For CN(C)c1ccc(SC#N)cc1, the Potency was active: 6.57 µM.
For O=C(OCc1ccccc1)/C(=C/c1cccc(Br)c1)NC(=O)c1ccco1, the Potency was inconclusive [inhibitor, partial curve, poor fit].
With Cc1cc(C(=S)N2CCOCC2)c(C)n1-c1ccc(F)cc1 the Potency was inconclusive [inhibitor, single point].
In the case of O=C(c1ccc(Br)o1)N(c1ccc(Br)cc1)C1C=CS(=O)(=O)C1 (configuration not stated), the Potency is reported as inconclusive [inhibitor, single point].
With C[C@]12C(=O)N(c3ccc(Cl)cc3)C(=O)N1[C@H]1c3ccccc3OC[C@@H]1[C@H]2c1ccccc1 the Potency was inconclusive [inhibitor, full curve].
For COc1ccccc1CNC(=O)c1cccc2c1C(=O)N(Cc1cccnc1)C2, the Potency was inconclusive [inhibitor, single point].
For CCOC(=O)[C@H]1[C@H]2COc3ccc(C)cc3[C@@H]2N2C(=O)c3cc(F)c(F)cc3NC(=O)[C@@]12C, the Potency was active: 11.7 µM.
For CCOC(=O)N1CCN(C(=O)c2c[nH]c3ccc(S(=O)(=O)N(C)c4ccc(OCC)cc4)cc3c2=O)CC1, the “activity change, negative = inhibition” value was inactive: 23.8%.
For COc1cccc(-c2nnc(NC(=O)c3ccc4ncsc4c3)o2)c1, the Potency was inconclusive [inhibitor, single point].
For CCOC(=O)CNC(=S)n1cnc(N)n1, the Potency was inconclusive [inhibitor, partial curve].
For Cc1cc(N/N=C2\CC(C)CC(C)(C)C2)nc2ccccc12 (configuration not stated), the Potency was inconclusive [inhibitor, partial curve].
For CC(C)(CO)N=C1NS(=O)(=O)c2cc([N+](=O)[O-])ccc21, the Potency was inconclusive [inhibitor, single point].
For CCCCN(CC)CCCNC(=O)c1cn(CC)c2ccc(S(=O)(=O)N3CCc4ccccc4C3)cc2c1=O, the Potency was inconclusive [inhibitor, partial curve].
For Cc1ccc(NC(=O)N2CCN(C/C=C/c3ccccc3)CC2)cc1, the Potency was inconclusive [inhibitor, partial curve, poor fit].
In the case of O=C(Nc1cccc(S(=O)(=O)N2CCCCC2)c1)C1CC(=O)N(Cc2ccccc2)C1 (configuration not stated), the Potency is reported as active: 13.1 µM.
With Cc1nn(C(=O)CCCn2cc([N+](=O)[O-])cn2)c(C)c1Cl the “activity change, negative = inhibition” value was inactive: -12.2%.
With O=C(O/N=C\c1ccc(N2CCOCC2)c([N+](=O)[O-])c1)c1ccccc1Cl the “activity change, negative = inhibition” value was inactive: 18.4%.
In the case of CCC1=C(OC(=O)N(CC)CC)N2C(=O)OC(=NCCOC)[C@]2(Cc2ccccc2)[C@H]2C1=CC[C@H]1C(=O)N(CC)C(=O)[C@H]12, the Potency is reported as active: 13.1 µM.
With O=c1c2sc3nc(N4CCOCC4)c4c(c3c2ncn1-c1ccccc1)CCCC4 the Potency was inconclusive [inhibitor, single point].
For CCOC(=O)c1sc(NC(=O)CN2C(=O)NC3(CCCCCCC3)C2=O)c(C(=O)OCC)c1C, the Potency was active: 8.28 µM.
For O=C(COc1ccccc1Cl)N1CCN(c2ncccn2)CC1, the Potency was inconclusive [inhibitor, single point].
For CC(C)C[C@H]1CN=C(N(C)C)N1CC1CCCC1, the Potency was inconclusive [inhibitor, single point].
For CC[N+]1=C(C)C(C)(C)c2cc(C)ccc21, the Potency was inconclusive [inhibitor, single point].
With Oc1ccc(/C=N/N(Cc2ccccc2)c2ccccc2)cc1 the Potency was inconclusive [inhibitor, partial curve, poor fit].
In the case of COc1ccccc1-c1cc(=O)c2c(O)ccc([N+](=O)[O-])c2o1, the Potency is reported as active: 11.7 µM.
For CCCC(=O)Nc1sc(C)c(-c2ccc(C(C)CC)cc2)c1C#N (configuration not stated), the “activity change, negative = inhibition” value was inactive: 6.02%.
In the case of Cn1nc(C(=O)N2CCN(c3ccccc3F)CC2)c2c1-c1ccccc1S(=O)(=O)C2, the “activity change, negative = inhibition” value is reported as inactive: -8.84%.
For Cc1ccccc1NS(=O)(=O)c1ccc(C(=O)NCCCN2CCCC2=O)cc1, the Potency was inconclusive [inhibitor, partial curve, poor fit].
In the case of N#Cc1cccc(S(=O)(=O)NCCOc2ccccc2F)c1, the “activity change, negative = inhibition” value is reported as inactive: 7.69%.
With CC(=O)Nc1cc[n+](C(C)C(=O)c2ccc(Br)cc2)cc1 (configuration not stated) the Potency was inconclusive [inhibitor, partial curve].
For CCC(C)CCN1C(N(C)C)=NC[C@@H]1CC(C)C (some centres not stated), the Potency was active: 13.1 µM.
In the case of O=S(=O)(c1ccccc1)N1CN(Cc2ccc(F)cc2)c2nc3ccccc3nc21, the Potency is reported as inconclusive [inhibitor, single point].
With COc1ccccc1-c1coc2c(CN(C)C)c(O)ccc2c1=O the Potency was inconclusive [inhibitor, single point].
With Cc1c(P(=S)(c2ccccc2)c2ccccc2)[n+]2ccccc2n1C the Potency was inconclusive [inhibitor, single point].
In the case of COc1cc(Br)c(C(=O)c2nccc3cc(OC)c(OC)cc23)cc1OC, the Potency is reported as active: 6.57 µM.
With COc1ccc(C2CN=NC23CCCc2ccccc2C3=O)cc1 (configuration not stated) the Potency was active: 3.7 µM.
For CN1C(=O)C(CC(=O)Nc2ccc(F)cc2)N(NC(=O)c2cccc(F)c2)C1=S (configuration not stated), the Potency was inconclusive [inhibitor, partial curve, poor fit].
For CCOc1ccccc1NC(=O)N1CCC(C(=O)c2ccc(F)cc2)CC1, the Potency was inconclusive [inhibitor, partial curve].
With O=[N+]([O-])c1ccc(N2CCCNCC2)c2ncccc12 the Potency was inconclusive [inhibitor, single point].
With COc1ccc(C(C(=O)NC(C)(C)C)N(C(=O)CNC(=O)c2cccs2)c2ccc(C(C)C)cc2)cc1OC (configuration not stated) the Potency was active: 11.7 µM.
In the case of CCc1ccc(NC(=O)CSc2nc(O)cc(=O)n2C2CCCC2)cc1, the Potency is reported as inconclusive [inhibitor, single point].
In the case of COC(=O)C1=CN(Cc2ccc(OC)c(OC)c2)C=C(C(=O)OC)C1c1cccc(F)c1, the Potency is reported as active: 9.28 µM.
In the case of CC(Sc1nc2ccccc2c(=O)n1Cc1ccco1)C(=O)c1ccccc1 (configuration not stated), the Potency is reported as inconclusive [inhibitor, full curve, poor fit].
With CCOC(=O)C(=Cc1ccccc1OC)C(=O)OCC the Potency was inconclusive [inhibitor, single point].
In the case of CC(C)CCNC(=O)CN(C(=O)CCC(=O)Nc1ccccn1)c1ccc(F)c(Cl)c1, the Potency is reported as inconclusive [inhibitor, partial curve, poor fit].
In the case of O=C(O)c1ccc(/C=N/NC(=O)c2cc(-c3ccc4c5c(cccc35)CC4)n[nH]2)cc1, the “activity change, negative = inhibition” value is reported as inactive: 0%.
For CSc1cccc(NC(=O)C2CCCN(S(=O)(=O)c3cccs3)C2)c1 (configuration not stated), the Potency was inconclusive [inhibitor, single point].
For O=C(CNc1ccc(Br)cc1)Nc1ccc(S(=O)(=O)N2CCCC2)cc1, the Potency was active: 9.28 µM.
For O=C(C[n+]1cccc(/C=N/O)c1)N(Cc1ccccc1)Cc1ccccc1, the Potency was inconclusive [inhibitor, full curve].
In the case of COc1ccc(CN2C(=O)c3cccnc3C2Nc2ccc(C)cc2)cc1 (configuration not stated), the Potency is reported as inconclusive [inhibitor, partial curve].
In the case of COc1cccc(OCCNC(=O)c2cc([N+](=O)[O-])cc([N+](=O)[O-])c2)c1, the Potency is reported as inconclusive [inhibitor, single point].
For COc1cccc2c(=O)c(C(=O)O)c[nH]c12, the “activity change, negative = inhibition” value was inactive: 19.2%.
With COc1ccc(Cc2nc3ccc(C(=O)NCc4cc(C)no4)cc3o2)cc1OC the Potency was inconclusive [inhibitor, single point].
For COc1ccc(C2C(C(C)=O)=C(O)C(=O)N2Cc2cccnc2)cc1 (configuration not stated), the “activity change, negative = inhibition” value was inactive: 9.53%.
